Assay results published in article PMC9911399, “Two distinct binding modes provide the RNA-binding protein RbFox with extraordinary sequence specificity”.
Where a chain is given by its changes, count along the chain named. The list shows a part of the results.

T1: RBFOX1 RRM RbFoxmut (Fox-RRM*) (Homo sapiens, UniProt Q9NWB1 109-208, R118D;E147R;N151S;E152T)
T1 sequence: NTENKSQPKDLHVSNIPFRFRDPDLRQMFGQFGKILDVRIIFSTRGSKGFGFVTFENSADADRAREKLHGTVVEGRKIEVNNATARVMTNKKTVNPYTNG

B1: CAUUAUU (DNA:RNA)
RNA: GGGAGACCGGAAUUCAGAUUGUCCCAUUAUUUUAAAUCCCGUCGUAGCCACCA
DNA 1: CAATCTGAATTCCGGTCTCCC
DNA 2: TGGTGGCTACGACGGGATT
B2: CUAACAC (DNA:RNA)
RNA: B1 RNA with A26U, U27A, U28A, A29C, U30A, U31C
DNA 1: CAATCTGAATTCCGGTCTCCC
DNA 2: TGGTGGCTACGACGGGATT
B3: AUGUACU (DNA:RNA)
RNA: B1 RNA with C25A, A26U, U27G, U30C
DNA 1: CAATCTGAATTCCGGTCTCCC
DNA 2: TGGTGGCTACGACGGGATT
B4: AGGCGCG (DNA:RNA)
RNA: GGGAGACCGGAAUUCAGAUUGUCCAGGCGCGUUAAAUCCCGUCGUAGCCACCA
DNA 1: CAATCTGAATTCCGGTCTCCC
DNA 2: TGGTGGCTACGACGGGATT
B5: GUUCCUU (DNA:RNA)
RNA: B1 RNA with C25G, A26U, U28C, A29C
DNA 1: CAATCTGAATTCCGGTCTCCC
DNA 2: TGGTGGCTACGACGGGATT
B6: AAGUCCC (DNA:RNA)
RNA: B4 RNA with G26A, C28U, G29C, G31C
DNA 1: CAATCTGAATTCCGGTCTCCC
DNA 2: TGGTGGCTACGACGGGATT
B7: UUAUGCC (DNA:RNA)
RNA: B4 RNA with A25U, G26U, G27A, C28U, G31C
DNA 1: CAATCTGAATTCCGGTCTCCC
DNA 2: TGGTGGCTACGACGGGATT
B8: UUUGCAU (DNA:RNA)
RNA: B1 RNA with C25U, A26U, U28G, A29C, U30A
DNA 1: CAATCTGAATTCCGGTCTCCC
DNA 2: TGGTGGCTACGACGGGATT
B9: AUUAGUU (DNA:RNA)
RNA: B1 RNA with C25A, A26U, U28A, A29G
DNA 1: CAATCTGAATTCCGGTCTCCC
DNA 2: TGGTGGCTACGACGGGATT
B10: GCAACUU (DNA:RNA)
RNA: B1 RNA with C25G, A26C, U27A, U28A, A29C
DNA 1: CAATCTGAATTCCGGTCTCCC
DNA 2: TGGTGGCTACGACGGGATT
B11: GAAUCGG (DNA:RNA)
RNA: B1 RNA with C25G, U27A, A29C, U30G, U31G
DNA 1: CAATCTGAATTCCGGTCTCCC
DNA 2: TGGTGGCTACGACGGGATT
B12: UCAUUGU (DNA:RNA)
RNA: B1 RNA with C25U, A26C, U27A, A29U, U30G
DNA 1: CAATCTGAATTCCGGTCTCCC
DNA 2: TGGTGGCTACGACGGGATT
B13: UCGACUA (DNA:RNA)
RNA: B4 RNA with A25U, G26C, C28A, G29C, C30U, G31A
DNA 1: CAATCTGAATTCCGGTCTCCC
DNA 2: TGGTGGCTACGACGGGATT
B14: CGUGCCA (DNA:RNA)
RNA: B4 RNA with A25C, G27U, C28G, G29C, G31A
DNA 1: CAATCTGAATTCCGGTCTCCC
DNA 2: TGGTGGCTACGACGGGATT
B15: AUGGGUA (DNA:RNA)
RNA: B4 RNA with G26U, C28G, C30U, G31A
DNA 1: CAATCTGAATTCCGGTCTCCC
DNA 2: TGGTGGCTACGACGGGATT
B16: CAUCCCU (DNA:RNA)
RNA: B1 RNA with U28C, A29C, U30C
DNA 1: CAATCTGAATTCCGGTCTCCC
DNA 2: TGGTGGCTACGACGGGATT
B17: CAUAGCG (DNA:RNA)
RNA: B4 RNA with A25C, G26A, G27U, C28A
DNA 1: CAATCTGAATTCCGGTCTCCC
DNA 2: TGGTGGCTACGACGGGATT
B18: CUCUUCG (DNA:RNA)
RNA: B4 RNA with A25C, G26U, G27C, C28U, G29U
DNA 1: CAATCTGAATTCCGGTCTCCC
DNA 2: TGGTGGCTACGACGGGATT
B19: UCGGCCU (DNA:RNA)
RNA: B4 RNA with A25U, G26C, C28G, G29C, G31U
DNA 1: CAATCTGAATTCCGGTCTCCC
DNA 2: TGGTGGCTACGACGGGATT
B20: UUUAUAA (DNA:RNA)
RNA: B1 RNA with C25U, A26U, U28A, A29U, U30A, U31A
DNA 1: CAATCTGAATTCCGGTCTCCC
DNA 2: TGGTGGCTACGACGGGATT
B21: CGUUUCC (DNA:RNA)
RNA: B1 RNA with A26G, A29U, U30C, U31C
DNA 1: CAATCTGAATTCCGGTCTCCC
DNA 2: TGGTGGCTACGACGGGATT
B22: UUUAAAU (DNA:RNA)
RNA: B1 RNA with C25U, A26U, U28A, U30A
DNA 1: CAATCTGAATTCCGGTCTCCC
DNA 2: TGGTGGCTACGACGGGATT
B23: GCUGCGC (DNA:RNA)
RNA: B1 RNA with C25G, A26C, U28G, A29C, U30G, U31C
DNA 1: CAATCTGAATTCCGGTCTCCC
DNA 2: TGGTGGCTACGACGGGATT
B24: GUGUGAC (DNA:RNA)
RNA: B4 RNA with A25G, G26U, C28U, C30A, G31C
DNA 1: CAATCTGAATTCCGGTCTCCC
DNA 2: TGGTGGCTACGACGGGATT
B25: AUGACUA (DNA:RNA)
RNA: B4 RNA with G26U, C28A, G29C, C30U, G31A
DNA 1: CAATCTGAATTCCGGTCTCCC
DNA 2: TGGTGGCTACGACGGGATT
B26: AAUAUAG (DNA:RNA)
RNA: B4 RNA with G26A, G27U, C28A, G29U, C30A
DNA 1: CAATCTGAATTCCGGTCTCCC
DNA 2: TGGTGGCTACGACGGGATT
B27: AGAAAAG (DNA:RNA)
RNA: B4 RNA with G27A, C28A, G29A, C30A
DNA 1: CAATCTGAATTCCGGTCTCCC
DNA 2: TGGTGGCTACGACGGGATT
B28: GAAUCGA (DNA:RNA)
RNA: B1 RNA with C25G, U27A, A29C, U30G, U31A
DNA 1: CAATCTGAATTCCGGTCTCCC
DNA 2: TGGTGGCTACGACGGGATT
B29: GAUCCGG (DNA:RNA)
RNA: B4 RNA with A25G, G26A, G27U, G29C, C30G
DNA 1: CAATCTGAATTCCGGTCTCCC
DNA 2: TGGTGGCTACGACGGGATT
B30: UAGGUGG (DNA:RNA)
RNA: B4 RNA with A25U, G26A, C28G, G29U, C30G
DNA 1: CAATCTGAATTCCGGTCTCCC
DNA 2: TGGTGGCTACGACGGGATT
B31: GGUGCUA (DNA:RNA)
RNA: B1 RNA with C25G, A26G, U28G, A29C, U31A
DNA 1: CAATCTGAATTCCGGTCTCCC
DNA 2: TGGTGGCTACGACGGGATT

Target: T1, RBFOX1 RRM RbFoxmut (Fox-RRM*)
Assay: EMSA; HiTS-Eq, 1 nM pool, 10 min; buffer printed only for the single-RNA assays: 10 mM Tris pH 7.5, 150 mM NaCl, 3.4 mM EDTA, 0.001% NP-40, 30 C
Conditions: tags: His6 N-terminal (pET28a); label: 5' 32P
Method in brief: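 Purified RbFox RRM (wild type or mutant) was equilibrated for 10 min in 50 µL with 1 nM of a 5′-radiolabelled pool of RNA with 7 randomized nucleotides, its flanks annealed to DNA oligonucleotides, across increasing protein concentrations. Free RNA was separated by 8% native PAGE, excised, reverse-transcribed, PCR-barcoded and sequenced on an Illumina HiSeq 2500. Relative association constants came from read-count changes of each variant against the control reaction, normalised to the cognate motif.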

Binder | binding signal
B1 | 0.139 KA relative to UGCAUGU
B2 | 0.0528 KA relative to UGCAUGU
B3 | 0.109 KA relative to UGCAUGU
B4 | 0.17 KA relative to UGCAUGU
B5 | 0.0772 KA relative to UGCAUGU
B6 | 0.048 KA relative to UGCAUGU
B7 | 0.221 KA relative to UGCAUGU
B8 | 0.139 KA relative to UGCAUGU
B9 | 0.129 KA relative to UGCAUGU
B10 | 0.0579 KA relative to UGCAUGU
B11 | 0.186 KA relative to UGCAUGU
B12 | 0.14 KA relative to UGCAUGU
B13 | 0.078 KA relative to UGCAUGU
B14 | 0.0901 KA relative to UGCAUGU
B15 | 0.212 KA relative to UGCAUGU
B16 | 0.0969 KA relative to UGCAUGU

Binder | binding signal
B17 | 0.123 KA relative to UGCAUGU
B18 | 0.104 KA relative to UGCAUGU
B19 | 0.113 KA relative to UGCAUGU
B20 | 0.102 KA relative to UGCAUGU
B21 | 0.0695 KA relative to UGCAUGU
B22 | 0.0844 KA relative to UGCAUGU
B23 | 0.134 KA relative to UGCAUGU
B24 | 0.0854 KA relative to UGCAUGU
B25 | 0.0952 KA relative to UGCAUGU
B26 | 0.107 KA relative to UGCAUGU
B27 | 0.118 KA relative to UGCAUGU
B28 | 0.561 KA relative to UGCAUGU
B29 | 0.06 KA relative to UGCAUGU
B30 | 0.083 KA relative to UGCAUGU
B31 | 0.0772 KA relative to UGCAUGU
